Hit rate of the full screen: of about 310,000 compounds, about 14,000 (4.5%) showed an effect of 50% or more. The effect is printed as a negative number. The list shows a part of the results.
Target: human ether-à-go-go-related gene (hERG) potassium channel (human, UniProt Q12809)
Assay: primary screen, population patch clamp on CHO cells stably expressing hERG
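Further: peak tail current of the secondary pulse compared with the same well before compound.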

human ether-à-go-go-related gene (hERG) potassium channel, sequence (Q12809 whole entry, looked up): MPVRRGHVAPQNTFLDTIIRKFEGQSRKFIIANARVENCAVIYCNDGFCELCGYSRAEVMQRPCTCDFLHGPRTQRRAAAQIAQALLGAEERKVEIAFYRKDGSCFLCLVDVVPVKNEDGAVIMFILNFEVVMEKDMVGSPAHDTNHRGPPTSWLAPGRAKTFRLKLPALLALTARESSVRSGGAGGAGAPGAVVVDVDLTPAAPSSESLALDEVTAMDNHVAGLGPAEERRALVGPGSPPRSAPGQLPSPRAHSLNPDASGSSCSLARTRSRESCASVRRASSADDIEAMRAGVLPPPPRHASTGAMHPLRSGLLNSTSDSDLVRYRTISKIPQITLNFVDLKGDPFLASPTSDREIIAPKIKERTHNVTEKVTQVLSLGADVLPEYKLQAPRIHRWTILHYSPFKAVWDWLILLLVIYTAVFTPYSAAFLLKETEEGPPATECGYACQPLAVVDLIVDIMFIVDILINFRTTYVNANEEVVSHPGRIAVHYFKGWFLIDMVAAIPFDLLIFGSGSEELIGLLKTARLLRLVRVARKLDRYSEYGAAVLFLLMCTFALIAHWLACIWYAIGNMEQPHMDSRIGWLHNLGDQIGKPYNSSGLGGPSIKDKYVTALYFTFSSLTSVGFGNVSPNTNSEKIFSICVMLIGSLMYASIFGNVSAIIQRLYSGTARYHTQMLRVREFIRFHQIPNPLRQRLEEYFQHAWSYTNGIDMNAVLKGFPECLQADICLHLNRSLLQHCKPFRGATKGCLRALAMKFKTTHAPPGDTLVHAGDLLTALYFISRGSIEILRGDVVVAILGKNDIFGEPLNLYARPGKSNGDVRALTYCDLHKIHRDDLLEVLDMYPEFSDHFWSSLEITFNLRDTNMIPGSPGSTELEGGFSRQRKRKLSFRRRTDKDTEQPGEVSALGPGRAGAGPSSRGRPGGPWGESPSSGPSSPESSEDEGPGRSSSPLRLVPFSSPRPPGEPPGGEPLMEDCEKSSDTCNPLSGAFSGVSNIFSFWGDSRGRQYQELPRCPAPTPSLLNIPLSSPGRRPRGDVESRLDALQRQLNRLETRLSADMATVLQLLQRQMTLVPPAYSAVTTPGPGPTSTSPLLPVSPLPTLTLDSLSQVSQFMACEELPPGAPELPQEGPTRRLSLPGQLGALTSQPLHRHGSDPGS

Row | SMILES | hERG current change (%, negative = inhibition) at 10uM
1 | O=C(O)CC1(CC(=O)Nc2ccc(C(F)(F)F)cc2)CCCC1 | 20.8%
2 | C/C(=N\NC(=O)Cc1ccccc1)c1ccc(Cl)s1 | 15.8%
3 | CCN1CC=C2C(C#N)=C(N)C(C#N)(C#N)C(CCc3ccccc3)C2C1 (centres unmarked) | -47%
4 | COc1ccc(N2CC(C(=O)OCC(=O)Nc3ccccc3C)CC2=O)cc1 (centres unmarked) | 15.6%
5 | Br.CO[C@H]1CC=C2CCN3CCC4=C(CC(=O)OC4)[C@]23C1 | 12.7%
6 | COc1ccc(Cc2nnc(N/N=C/c3ccc(O)cc3O)[nH]c2=O)cc1OC | -3.34%
7 | COc1ccccc1NC(=O)c1ccc(-n2ccnc2)c([N+](=O)[O-])c1 | 15.1%
8 | C/C=C/c1ccc(OCC(=O)N(CCOC)c2c(N)n(CCCC)c(=O)[nH]c2=O)c(OC)c1 | 11.2%
9 | CC(C)NC(=O)c1ccc2c(=O)n(C3CCCC3)c(=S)[nH]c2c1 | -4.07%
10 | CCOC(=O)c1cnc2c(C)cc(C)cc2c1NCCCN1CCOCC1 | -59.7%
11 | CC(=O)Nc1ccc(S(=O)(=O)N2CCN=C2C)cc1 | 5.24%
12 | COc1ccc(S(=O)(=O)N2CCc3ccccc32)cc1[N+](=O)[O-] | -11.6%
13 | Cc1nc2ccc(S(=O)(=O)NCC(=O)N3CCN(c4ccccc4)CC3)cc2s1 | -1.33%
14 | C/C(=N/Nc1nc(C)c(C)s1)c1cccc([N+](=O)[O-])c1 | 4.26%
15 | CCOc1ccc(C(=O)O)cc1OC | 12.4%
16 | COc1ccc2nc(SCC(=O)Nc3cc(C)on3)c(C#N)cc2c1 | 12.8%
17 | Cc1ccc(NC(=O)C2CCN(c3ncnc4sc(C)c(C)c34)CC2)cc1S(=O)(=O)N(C)C | -2.54%
18 | CC(C)OP(=O)(c1ccc(N(C)C)cc1)C(O)c1ccccc1F (centres unmarked) | 2.11%
19 | Cc1ccccc1-n1c(C)nnc1SCc1cc(=O)oc2ccc3ccccc3c12 | -25%
20 | O=C1CCCC2=C1C(c1ccncc1)n1c(nc3ccccc31)N2 (centres unmarked) | 7.66%
21 | O=C1N/C(=N/N=C/c2ccc(F)cc2)SC1c1ccccc1 (centres unmarked) | 13%
22 | Cc1ccccc1N1C(S)=C(C#N)C(=O)NC12CCCCC2 | -7.37%

Row | SMILES | hERG current change (%, negative = inhibition) at 10uM
23 | Cc1nn(Cc2c(F)c(F)c(F)c(F)c2F)c(C)c1NC(=O)c1c(-c2ccccc2)nn(-c2ccccc2)c1C | -0.0218%
24 | CC(C)(C)C(=O)Nc1cc2c3c(c1)CC(=O)N3CCC2 | 18.3%
25 | Cc1cccc(NC(=O)CN2C(=O)/C(=C3\SC(=S)N(CC4CCCO4)C3=O)c3ccccc32)c1 (centres unmarked) | 12.9%
26 | CCCCCCc1ccc(N2C[C@H](Cc3ccccc3)[C@@H](CC(=O)NCc3ccc(OC)cc3)C2=O)cc1 | -4.42%
27 | Cc1occc1C(=O)NCc1nc(-c2ccccc2)no1 | 7.13%
28 | COc1ccc(CNC(=O)C2(c3ccc(Cl)cc3)CC2)cc1 | 13.7%
29 | C[N+](C)(C)CCOP(=O)([O-])OC[C@H](O)CO | 15.5%
30 | COc1ccc(C(=O)NC2CC(C)(C)Cc3c2cnn3-c2ccccc2C)c(OC)c1OC (centres unmarked) | -30.9%
31 | CCc1ccc(OC(C)c2nnc(SCC(=O)Nc3ncccc3C)n2C)cc1 (centres unmarked) | -14.3%
32 | Cc1ccc2occ(/C=N/NC(=O)c3ccncc3)c(=O)c2c1 | 4.1%
33 | CCn1c(SCC(=O)Nc2cc(C)on2)nnc1-c1cccc(C)c1 | 4.03%
34 | O=C(c1ccc(Cl)cc1[N+](=O)[O-])N(Cc1ccccc1)Cc1ccccc1 | -12.9%
35 | CCOC(=O)N1CCN(S(=O)(=O)c2ccc(OCC)c3ccccc23)CC1 | -3.31%
36 | CCOC(=O)C1=C(C)N(c2ccc(C)cc2)C(=O)/C1=C\c1cccs1 | 1.45%
37 | CN1CCN(c2nc3c(c(=O)n(C)c(=O)n3C)n2Cc2cccc(Br)c2)CC1 | -55.1%
38 | Cc1cccc(-c2c3c(=O)n(C)c(=O)n(C)c3cn2C(C)C)c1 | 2.26%
39 | Cc1ccc(S(=O)(=O)Nc2cccc(C(=O)NCC(c3ccco3)N3CCCC3)c2)cc1F (centres unmarked) | -38.5%
40 | O=C(CCSc1nc(-c2ccc3c(c2)OCO3)cc(C(F)(F)F)n1)NCc1ccccc1 | 5.55%
41 | Nc1cc(S(=O)(=O)c2ccc(O)c(N)c2)ccc1O | 13.3%
42 | CC1CCN(C(=O)c2ccccc2NC(=O)Cc2ccccc2)CC1 | 5.89%
43 | CCCC(=O)N(Cc1cc(=O)[nH]c2ccccc12)c1ccc(OC)cc1 | 0.327%
44 | C=CC(=O)Nc1sc2c(c1C(N)=O)CCCC2 | 8.31%

Row | SMILES | hERG current change (%, negative = inhibition) at 10uM
45 | CCC(C)n1c(=N)c(C#N)cc2c(=O)n3cccc(C)c3nc21 (centres unmarked) | -66.9%
46 | C=CCN1C=C2C(=O)C(C)(OC(=O)c3ccco3)C(=O)C(C=C)=C2C=C1C1CC1 (centres unmarked) | -13.6%
47 | O=C(Cc1cccs1)NCc1cccc(F)c1 | 14.4%
48 | O=C(CSc1nc(-c2ccccc2Cl)ns1)NCc1ccco1 | -21.8%
49 | COc1cc(OC)c(NC(=O)c2ccc(F)cc2)cc1Cl | 17.8%
50 | Cc1cc(NC(=O)CSc2nnc(-c3ccc4c(c3)OCCO4)o2)no1 | 12.6%
51 | O=C(CSc1nnnn1-c1ccccc1F)NNC(=O)c1ccco1 | 24.6%
52 | CCCN1CCC(=O)N([C@H](CSc2ccc(OC)cc2)CC(C)C)CC1 | -70.8%
53 | O=C1C2ON(c3ccccc3)C(c3cccnc3)C2C(=O)N1c1ccc(Cl)c(Cl)c1 (centres unmarked) | 10.5%
54 | Cc1ccc(CC(C(=O)O)C(C)C(=O)Nc2ccc(F)cc2)cc1 (centres unmarked) | 5.97%
55 | Cc1ccc(-c2nc(Nc3ccccc3)n[nH]2)cc1 | 15.6%
56 | Cc1ccccc1OCCCC(=O)Nc1nccs1 | 6.11%
57 | O=C(O)c1ccc(NS(=O)(=O)c2cccc3cccnc23)cc1 | -0.717%
58 | NC1=NC(=O)/C(=C/c2ccc(Br)cc2)S1 | 25.1%
59 | COc1ccc(NC(=S)Nc2ccc(C)c(Cl)c2)cc1OC | -0.237%
60 | COc1cccc(C(=O)N/N=C2/SCC(=O)N2CCc2ccc(OC)c(OC)c2)c1 | 5.86%
61 | O=C(N/N=C/c1ccco1)c1ccc(C(=O)N/N=C/c2ccco2)o1 | -0.383%
62 | CCOc1ccccc1NC(=O)COc1cccc(-n2cnnn2)c1 | -27.2%
63 | O=C(NCc1cccnc1)c1ccccc1-c1ccccc1 | -0.462%
64 | C/C(=N\NC(N)=S)C1(C)CCCCC1 | 9.27%
65 | COCCNC(=O)CSc1nc2cc3c(cc2c(=O)n1CCCC(=O)NCCc1ccc(OC)c(OC)c1)OCO3 | 28.8%
66 | COc1ccc(-c2cc(C(=O)Nc3ccc(Cl)cc3Cl)c3ccccc3n2)cc1OC | 9.13%

Row | SMILES | hERG current change (%, negative = inhibition) at 10uM
67 | O=C(CNS(=O)(=O)c1ccc(Cl)c(C(F)(F)F)c1)NC1CCCCC1 | 8.66%
68 | Cc1ccsc1C(=O)NNC(=O)Nc1ccc(Cl)c(Cl)c1 | 3.41%
69 | COc1ccc(-n2c(COc3ccc(C)cc3)nnc2SCC(=O)O)cc1 | 12.9%
70 | COc1ccc(C2/C(=C(\O)c3ccc4c(c3)CC(C)O4)C(=O)C(=O)N2Cc2cccnc2)c(OC)c1 (centres unmarked) | 2.72%
71 | Cc1cccc(N(C(=O)c2snc(C(N)=O)c2N)C(C(=O)NCC2CCCO2)c2ccc(N(C)C)cc2)c1C (centres unmarked) | 5.26%
72 | CC(=O)c1sc2nc(-c3ccco3)ccc2c1N | 0.505%
73 | COc1cccc2cc(C(=O)NCCc3ccccc3)oc12 | -20.1%
74 | O=C(NCCS(=O)(=O)N1CCN(c2ccccc2)CC1)C1CC(=O)N(c2ccccc2)C1 (centres unmarked) | 18.9%
75 | CCOC(=O)c1c(NC(=O)c2ccco2)sc2c1CCCCC2 | 9.58%
76 | COc1ccc(CCNC(=O)c2ccc(NC3=NC4CS(=O)(=O)CC4S3)cc2)cc1OC (centres unmarked) | 18.6%
77 | Cc1cc(NC(=O)c2ccco2)c(=O)n(Cc2cccc(C(F)(F)F)c2)c1 | -1.86%
78 | C[C@@H](C(=O)NCc1ccco1)N1C(=O)N2CCc3c([nH]c4ccccc34)[C@@]2(C)C1=O | -22.8%
79 | CCc1cccc(Nc2cc(C)nc3nc(C)nn23)c1 | -25.3%
80 | Cc1ccc(CN2CCN(/N=C\C=C\c3ccccc3)CC2)cc1 | -72.2%
81 | Cc1ccc(C(=O)/C=C/Nc2cccc([N+](=O)[O-])c2)o1 | -6.39%
82 | COC(=O)c1sccc1NC(=O)c1cc(-c2cc(C)ccc2C)nc2ccccc12 | 5.4%
83 | CCOC(=O)N1C=CC(C)=C[C@@H]2[C@@H](N3C(=O)c4ccccc4C3=O)C(=O)N21 | -16.3%
84 | COc1ccc(NC(=O)c2sc3nc(C)cc(C)c3c2N)c(OC)c1 | -6.2%
85 | c1ccc(CC2CCN(Cc3nc(-c4ccccc4)no3)CC2)cc1 | -8.93%
86 | NC(=O)COC(=O)Cc1coc2cc3c(cc12)CCC3 | 12.9%

Source: article PMC4336329 (PLoS ONE, 2015)
